± gives the standard deviation of the averaged measurements. The list shows a part of the results.
test system: PfAP2-G AP2 domain (GST-tagged); test: gcPBM binding intensity (ln(normalized median fluorescence intensity)); higher = stronger DNA binding
In short: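 Binding of GST-tagged P. falciparum DNA-binding domains, expressed in E. coli and used at about 25 μg on average, was carried out for 1 h in 1× PBS containing 1% milk, 0.2 mg/ml BSA, 0.5% salmon testes DNA and 0.03% Triton X-100. The target was an Agilent 4 × 180k array of primer-extended double-stranded 36-bp intergenic genomic probes plus negative controls, read with Alexa488 anti-GST antibody at 488 nm. Binding intensity is the highest Masliner-normalised natural-log median intensity across replicate spots of either probe orientation.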

**Q.** How did the “gcPBM binding intensity (ln)” value turn out when “GCTTATATTAATAAGGTGCTTTTTATTTCGTGTGTA [GTGCAC_site9649]” was run?
**A.** Its value is 9.82 ± 0.085.

**Q.** How did the “gcPBM binding intensity (ln)” value turn out when ATTCTTAAAAAATAAGTGCAAAATAATTAAATAAAT was run?
**A.** The value was 10.02 ± 0.021.

**Q.** “ATATGTCCATATAGTAAATGTTACATTTTAAAGCGC [XGTACX_negctrl_site168]” was tested. Which “gcPBM binding intensity (ln)” value did it give?
**A.** The value was 10.5 ± 0.53.

**Q.** For “AAAATATTTATTTTTTGTACACATAAAAACGCACTT [XGTACX_site4132]”, which “gcPBM binding intensity (ln)” value is on record?
**A.** Its value is 11.4 ± 0.82.

**Q.** Which “gcPBM binding intensity (ln)” value does the source give for “CATATTTTGTGAAAAAGTACATATATATATATATAT [XGTACX_site6295]” here?
**A.** Its value is 11.4 ± 0.98.

**Q.** For “AGAATGGTTTATAAAGGTACGTAATTTTTAATTTTA [XGTACX_site383]”, which “gcPBM binding intensity (ln)” value is on record?
**A.** The value was 10.9 ± 0.52.

**Q.** “AAACGTATTCTATAAAGTACATTATTATAGTAGACC [XGTACX_site8068]” was tested. Which “gcPBM binding intensity (ln)” value did it give?
**A.** The value was 11 ± 0.61.

**Q.** “TATTGAATAAAATGCACACGCATGCGTTATTTATTA [CACACA_site3479]” was tested. Which “gcPBM binding intensity (ln)” value did it give?
**A.** The value was 9.915 ± 0.035.

**Q.** For “TAAAAAAATTATATTTGTACATATTAATATAGCCTT [XGTACX_site4833]”, which “gcPBM binding intensity (ln)” value is on record?
**A.** The value was 10.9 ± 0.56.

**Q.** How did the “gcPBM binding intensity (ln)” value turn out when “TATATAAATATATCCACACACATACCTATATTAATA [CACACA_site6184]” was run?
**A.** Its value is 10.1 ± 0.23.

**Q.** With “GTATTGTATGGATGGGGTACTATATATATATATTTT [XGTACX_site1694]” as the sequence, how does the “gcPBM binding intensity (ln)” value read?
**A.** Its value is 11.3 ± 0.83.

**Q.** How did the “gcPBM binding intensity (ln)” value turn out when ACTTTCAACATGAAGTTGCACTTTTTTTTTTTTCTT was run?
**A.** Its value is 10.09 ± 0.049.

**Q.** How did the “gcPBM binding intensity (ln)” value turn out when “TAAGGGAGAGATTTGTATCATAAGCAACTTTCAAAA [CACACA_negctrl_site1436]” was run?
**A.** Its value is 9.96 ± 0.28.

**Q.** “TTATAATTAAATTTCACACAGTTCATAACATAATTA [CACACA_site5501]” was tested. Which “gcPBM binding intensity (ln)” value did it give?
**A.** Its value is 9.82 ± 0.085.

**Q.** Which “gcPBM binding intensity (ln)” value does the source give for “TTTATATGTTTTAAGTGTACACATATAATGTATTTT [XGTACX_site3069]” here?
**A.** Its value is 11.6 ± 0.91.

**Q.** For “TTTTTTAAAAATAACTGTACAGAGGCTGTTAGGATA [XGTACX_site2521]”, which “gcPBM binding intensity (ln)” value is on record?
**A.** The value was 11 ± 0.4.

**Q.** For “TAATTAAATAAAAAAAAATATATATATATATATATA [XGTACX_negctrl_site616]”, which “gcPBM binding intensity (ln)” value is on record?
**A.** The value was 10.1 ± 0.87.

**Q.** How did the “gcPBM binding intensity (ln)” value turn out when “AGACAATATTAATAAGGTACACATATATATTAAAAA [XGTACX_site6709]” was run?
**A.** Its value is 11.2 ± 0.86.

**Q.** “TAAATATATAAATACACACACACCAAAGCAATAGAT [CACACA_site5605]” was tested. Which “gcPBM binding intensity (ln)” value did it give?
**A.** Its value is 10.4 ± 0.23.

**Q.** With “AAAAAAAAAAAAGAAACACACACATATATATATATA [CACACA_site8525]” as the sequence, how does the “gcPBM binding intensity (ln)” value read?
**A.** Its value is 9.78 ± 0.4.

**Q.** With “AGCAGTCGACAGGACAGTACACAGTAGCCAGGAAAT [XGTACX_site4929]” as the sequence, how does the “gcPBM binding intensity (ln)” value read?
**A.** Its value is 11 ± 0.7.

**Q.** With “TCCATATGCATGTATTGTACTGTAATATATTAAAAA [XGTACX_site472]” as the sequence, how does the “gcPBM binding intensity (ln)” value read?
**A.** Its value is 10.9 ± 0.64.

**Q.** With “AAAAAAAAAAAAAAATGTACATGACATGACATGACA [XGTACX_site4020]” as the sequence, how does the “gcPBM binding intensity (ln)” value read?
**A.** Its value is 10.9 ± 0.47.

**Q.** For “TTATATTTTACAAATGCACACATAATTTTTTTTTTT [CACACA_site8890]”, which “gcPBM binding intensity (ln)” value is on record?
**A.** The value was 9.9 ± 0.028.

**Q.** Which “gcPBM binding intensity (ln)” value does the source give for “TAAAGAAATAAATACATACACACATATATATATATA [CACACA_site3363]” here?
**A.** The value was 10.2 ± 0.79.

**Q.** Which “gcPBM binding intensity (ln)” value does the source give for “AAACTTTACATTACTTGTACATATATTCTATATAAT [XGTACX_site8640]” here?
**A.** Its value is 11.1 ± 0.64.

**Q.** For “CACACTTGCTCCTGTTGTACATAACCATAAGCAACA [XGTACX_site2102]”, which “gcPBM binding intensity (ln)” value is on record?
**A.** The value was 11.1 ± 0.73.

**Q.** Which “gcPBM binding intensity (ln)” value does the source give for “TGAATATAACAAATATGTACTTAAAATTGTTATATT [XGTACX_site5679]” here?
**A.** The value was 11.1 ± 0.76.

**Q.** Which “gcPBM binding intensity (ln)” value does the source give for “ATTATTAAAAATATGGGTACATATTATTGTTATATA [XGTACX_site1958]” here?
**A.** The value was 11.2 ± 0.84.

**Q.** How did the “gcPBM binding intensity (ln)” value turn out when “AAATATATATTCAAAAGTACACAATTTGTTAATAAT [XGTACX_site8917]” was run?
**A.** The value was 11.4 ± 0.82.

**Q.** With “TATTTTACGCGGTTTATAATGACATGTTCTATATTT [CACACA_negctrl_site1184]” as the sequence, how does the “gcPBM binding intensity (ln)” value read?
**A.** The value was 10.4 ± 0.23.

**Q.** For “TTTGATAATAAGATATAATACTTAAATATATATATA [GTGCAC_negctrl_site339]”, which “gcPBM binding intensity (ln)” value is on record?
**A.** Its value is 9.93 ± 0.39.

**Q.** “GTTTTTACTTTTATCTGTACATAATACTACCAATAT [XGTACX_site5414]” was tested. Which “gcPBM binding intensity (ln)” value did it give?
**A.** Its value is 11.2 ± 0.77.

**Q.** For “TTTTTTTCTTAAAGATGTACTTTTTAAAAACAATCT [XGTACX_site986]”, which “gcPBM binding intensity (ln)” value is on record?
**A.** Its value is 11.3 ± 0.67.

**Q.** With “AGACATATTCTTTTTACACACTTGAATAAAAAATAT [CACACA_site1205]” as the sequence, how does the “gcPBM binding intensity (ln)” value read?
**A.** Its value is 10.2 ± 0.35.

**Q.** For “CATTTTATAAAAACAAGTACCCAACATATATATAAT [XGTACX_site5955]”, which “gcPBM binding intensity (ln)” value is on record?
**A.** The value was 11.2 ± 0.63.

**Q.** For “GATGAGGACAGACACACACACATAAGTTGATACATA [CACACA_site7580]”, which “gcPBM binding intensity (ln)” value is on record?
**A.** The value was 11.2 ± 0.82.

**Q.** For “GTTGGGTAATTCGTAACACACATAAAATATATATAA [CACACA_site3986]”, which “gcPBM binding intensity (ln)” value is on record?
**A.** The value was 10.13 ± 0.099.

**Q.** “CACGCGCACCAACACACACACACACCCATATATATA [CACACA_site2204]” was tested. Which “gcPBM binding intensity (ln)” value did it give?
**A.** Its value is 10.5 ± 0.35.

**Q.** With CTGTACACTTAAACGGTGCAAAAAGAAAAAAAAGAA as the sequence, how does the “gcPBM binding intensity (ln)” value read?
**A.** Its value is 11.2 ± 0.95.

**Q.** For “TGCCTATGACATGAATGTACATTAAAATTAAATAAA [XGTACX_site7126]”, which “gcPBM binding intensity (ln)” value is on record?
**A.** Its value is 10.8 ± 0.52.

**Q.** How did the “gcPBM binding intensity (ln)” value turn out when “AAATACATATTTAGAAGTACATTTATACATTTAATA [XGTACX_site8871]” was run?
**A.** Its value is 11.2 ± 0.79.

**Q.** Which “gcPBM binding intensity (ln)” value does the source give for “TTCATTAAAGTTATTACACACAGTTCTTCAACCAAA [CACACA_site7613]” here?
**A.** Its value is 10.2 ± 0.3.

**Q.** With “ACAGCTCTAGGACATGCATGTTATATAGAAAAAGAG [TGCATGCA_site703]” as the sequence, how does the “gcPBM binding intensity (ln)” value read?
**A.** Its value is 10.3 ± 0.23.

**Q.** Which “gcPBM binding intensity (ln)” value does the source give for “AAGTTAATGTTTTGCGCACACTTCTTTTTAATATAA [CACACA_site3938]” here?
**A.** Its value is 10.7 ± 0.38.

— the supplement of paper PMC11417369
